# The supplement of paper PMC10681739
# ± gives the standard deviation of the averaged measurements. In all, about 4,100 sequences were measured (“arbitrary fluorescence units”: median about 780, highest 2% from about 22,000 on). Some of the results follow.
# Target: T1, ETS1 (UniProt P14921)
# T1 sequence: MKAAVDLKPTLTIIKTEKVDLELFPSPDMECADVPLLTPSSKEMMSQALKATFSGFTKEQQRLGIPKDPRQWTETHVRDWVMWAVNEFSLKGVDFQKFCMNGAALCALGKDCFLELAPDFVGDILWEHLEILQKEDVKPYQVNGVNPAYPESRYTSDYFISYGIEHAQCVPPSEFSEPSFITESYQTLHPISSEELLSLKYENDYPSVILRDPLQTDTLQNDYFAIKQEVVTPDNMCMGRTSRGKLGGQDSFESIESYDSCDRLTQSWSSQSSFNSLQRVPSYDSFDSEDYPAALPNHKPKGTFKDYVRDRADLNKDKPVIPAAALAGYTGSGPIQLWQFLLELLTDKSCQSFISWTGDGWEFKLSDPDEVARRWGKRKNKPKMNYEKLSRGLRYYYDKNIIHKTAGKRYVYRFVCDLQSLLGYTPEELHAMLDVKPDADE
# Test: ETS1 binding intensity (PBM fluorescence), ETS1 alone (arbitrary fluorescence units); higher = stronger binding
# Settings: ETS1 concentration 1 nM; RUNX1 concentration 0 nM
# Outline: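 Full-length recombinant human ETS1 (1 nM, no RUNX1) was incubated, per standard PBM protocols, on double-stranded Agilent 4 × 180k arrays of 36-bp genomic probes whose RUNX1 partner site was mutated. Bound ETS1 was detected with anti-ETS1 antibody (Cell Signaling Technology 14069) and Alexa488-conjugated secondary antibody, then scanned on a GenePix 4400A. Binding level is spot fluorescence intensity, summarised over replicate spots (four printed per sequence) and not normalised.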
row,Sequence,ETS1 binding intensity
1,CTCTCTGGGCGGAAGGAACGCGATCACCCTGAGAAA,689
2,CCCTACTGCGTGAGGTGGCAGCTTCCTTACGGCAGT,379
3,CGGGCCCGTAGATATCACACCCACCCGGAAGTCCTC,736
4,GCGCATCCGGGTCACGCTAACGCCGAGGTCTCCTCC,14200
5,GTGGATTTCACATCCTGTCCTAGGGGTATGTTTGTC,11500
6,CTGATTGGCTTCGGCCAGGCCGTTTCCGGTGGAGCT,9390
7,GACTTCCTTCTCCACATACCTGAAAGTGCTTTCTGG,7100
8,GGCACAGGCTCAACGCGCAGGCAGGAAGCAGCGGTA,717
9,GCGGAGCCGGACGGTAAAGACCCCTCAGCCCTGCTC,295
10,CCTGCACTTGGCCGCCGCCAGCTTGTTCCGCTCGCT,334
11,CCCCCTGAACATCCGGGGCCTTTTAAACGCCCACGG,7660
12,ACCCGACCTACAAGCGACCCTGCAGGAAGGGCTGGG,448
13,TTCAGGAAATGCAAACGGCTGCAGAGACTGCAGAGG,1220
14,TCTGTCGCACATCCGGTGTGAGCTTCGGGGCGGTGG,22500
15,GGGTCTCCAGGAAGGTTGGAGCTGAACCGGCGCTGC,324
16,TCGCACTGTCTGTCGTTCTCTCCTTCCTGTCAGCTG,1090
17,CTGGCTACAGGAAAAACAAAGTCAAACTACAGCACT,396
18,GCTGCCAGGTGGCAACAGCGCACAGGAAACGAGACT,984
19,TCAGAGACTTCCGCTCAGCAGCAGCTTCGGCCAGGC,17200
20,CGAGCGCAGGATGGGGTTGTCGAACGCGCGGCGAGC,387
21,CAGGCCGAAGGGGAGAGGCACGTCCAGGAAGATCTA,393

row,Sequence,ETS1 binding intensity
1,GATGTGACTTGCCAAAAAAAAGCATATCCTTGGGTG,392
2,CAGTTTACAGCACGGTGGGGCCTGTCTCCGGAATCG,456
3,AGTCGGAAGCCATCTGCCCCAACTTGGGGTCTTCAC,337
4,TCCTCTCTCTTCCTCCCTCTGGCTACAAGCTGTGCC,877
5,GTGGCGGGGCGGAAGTTCACATGTGTGATATGTAGA,5430 ± 610
6,CTTCAGGAGACAACAGTTCTCAGGCTTCCTCCCTTC,353
7,GCGCGCTGTAGCAATTGGAGGACCCAGGAAGAAGGG,346
8,TTGCAAGAAATCGCTGGCCATGGCACTTCCCAGTGT,371
9,CACGGTCTTTGCCGCTCAGCTTCCCGGAGTCCGCGC,458
10,AGCGATTTCCTTCTCGGGCCCCTGGGCTTCGGCAGT,2950
11,GCCGCCGCCGTAGGCCCCAGACCGGAAGTGAATGCC,12600
12,CCGGGCTGCGGAAGGCGGGAATTCTGCTGTTCGCGG,380 ± 24
13,AGGGATGCTGGGAAATGTAGTCCAGCCCCAAGCCAA,321
14,TGGGAGACCCCAAAGCCCAAGGCGGAAGCCATGTCA,390
15,ACACAAACAGGAAGTGTTTGTAGTCCCTGCCTTTAG,8530
16,GACCCATAGCGGAAAATTCTACAGCACTACCTCCCT,462
17,AGACAGTCACTCAGCACAAACAGGAAATAGAACAAG,5480
18,AGGCTTCCGGCCACGCCCCCTTCCCGAGGTTGCTAG,20600
19,TGCCCGAGGGCCGCCGCCTCCGTATTTCCGCGTTTT,429
20,TCCCGCTTCGGCCAACAGCCGGGCCACTTCCGGGGC,2910
21,CTCCATTATTCCGGCCAGGTGCCCTTCTGGGATAAG,670

row,Sequence,ETS1 binding intensity
1,TGGATGGCGGCGGATACTGCCCATGCCGCGAGGCCG,458
2,GCGAATCTACGGCATCCAACATGGCGGATGGAGTCT,331
3,ACCACCCACTTCCCGCGCAGTTCCAAACGGCGACCA,3010
4,GAGGCAGTGCGTTTACTGTGTATTTCCTTCTCTGGT,512
5,ACTTAGACGCCGAAACCCCAGTTCCGCGCTTGCTGC,422
6,GACGCAGCCCCAGAGCGATTCGCGTCCCGGAAGCGG,491
7,AGTCTGGCTCTGACAACAAGGCAGGAAATAGCTCAT,1760
8,GGTTCCTTGACGTTCGCGGCGTGCCGGACGTGACAA,475
9,ACCTCCGTCCGGCCCGCGGGACCAGGGTGCAGGTCC,1570
10,ACACAGTGTTTGGGGTGAATGGCTTCCGGCCCCATA,2140
11,AAACTACATTTCCCAGCATCCCGCGCGCCGCCGACC,448
12,CGGGTTGAGAACCCCAGCCTTCACATCCGGCTTTTT,2890
13,TGGCGCCGGAAAACTGGCGATGCAGGTGGGCGCGAA,422
14,TCCCCCTAGATAAGGAAGCAGACCAGAGAGTCTCAG,393
15,CAAGCCACCTAATTAGGATAATGGAGAGGAAGCCCA,352
16,GAGACAGGAAATGTAGACTTGAGTCCTGTGATAAAC,6070
17,TGGATATACCTGCAGGTCCAGAATCGTTTCCGGACC,717
18,AGCCTCTTCCTGCTCCTGATCAGCGCTTATCTTGCT,5120
19,TGCCGCTGTTCACATGCTGGTCACACCACTTCCTGA,674
20,AGTTTCCTGAACTCAGAGCACAGTTCTGGTGCAGAA,6300
21,GGAATCCACCTCTGTCCAACCCGGCTTCCTCTCCCG,513
